From patent US9561289 (OSPEDALE SAN RAFFAELE, dated 2017)

Assays:
Assay in all cases: competitive binding assay, integrin-coated plate, probe isoDGR/STV-HRP
Human integrin αvβ3 = biological target: T1, Human integrin αvβ3 (human, UniProt P06756 31-1048; P05106 27-788, limits assumed)
T1 construct: Bought from Immunological Sciences; coated on microtiter plates or spotted on nitrocellulose; also called avb3; purified αvβ3-integrin

Human integrin αvβ5 = biological target: T2, Human integrin αvβ5 (human, UniProt P06756 31-1048; P18084 24-799, limits assumed)
T2 construct: Bought from Immunological Sciences; coated on microtiter plates

[1] = biological target: T3, Recombinant human integrin αvβ6 (human, UniProt P06756 31-992; P18564 22-707)
T3 construct: Bought from R&D System

[2] = biological target: T4, Recombinant human integrin αvβ8 (human, UniProt P06756 31-992; P26012 43-684)
T4 construct: Bought from R&D System; also called αvβ38 [sic]

Human integrin α5β1 = biological target: T5, Human integrin α5β1 (human, UniProt P08648 42-1049; P05556, limits assumed)
T5 construct: Bought from Immunological Sciences; coated on microtiter plates

Chain of Human integrin αvβ5 (P06756 31-1048 limits assumed, chain 1 of 2): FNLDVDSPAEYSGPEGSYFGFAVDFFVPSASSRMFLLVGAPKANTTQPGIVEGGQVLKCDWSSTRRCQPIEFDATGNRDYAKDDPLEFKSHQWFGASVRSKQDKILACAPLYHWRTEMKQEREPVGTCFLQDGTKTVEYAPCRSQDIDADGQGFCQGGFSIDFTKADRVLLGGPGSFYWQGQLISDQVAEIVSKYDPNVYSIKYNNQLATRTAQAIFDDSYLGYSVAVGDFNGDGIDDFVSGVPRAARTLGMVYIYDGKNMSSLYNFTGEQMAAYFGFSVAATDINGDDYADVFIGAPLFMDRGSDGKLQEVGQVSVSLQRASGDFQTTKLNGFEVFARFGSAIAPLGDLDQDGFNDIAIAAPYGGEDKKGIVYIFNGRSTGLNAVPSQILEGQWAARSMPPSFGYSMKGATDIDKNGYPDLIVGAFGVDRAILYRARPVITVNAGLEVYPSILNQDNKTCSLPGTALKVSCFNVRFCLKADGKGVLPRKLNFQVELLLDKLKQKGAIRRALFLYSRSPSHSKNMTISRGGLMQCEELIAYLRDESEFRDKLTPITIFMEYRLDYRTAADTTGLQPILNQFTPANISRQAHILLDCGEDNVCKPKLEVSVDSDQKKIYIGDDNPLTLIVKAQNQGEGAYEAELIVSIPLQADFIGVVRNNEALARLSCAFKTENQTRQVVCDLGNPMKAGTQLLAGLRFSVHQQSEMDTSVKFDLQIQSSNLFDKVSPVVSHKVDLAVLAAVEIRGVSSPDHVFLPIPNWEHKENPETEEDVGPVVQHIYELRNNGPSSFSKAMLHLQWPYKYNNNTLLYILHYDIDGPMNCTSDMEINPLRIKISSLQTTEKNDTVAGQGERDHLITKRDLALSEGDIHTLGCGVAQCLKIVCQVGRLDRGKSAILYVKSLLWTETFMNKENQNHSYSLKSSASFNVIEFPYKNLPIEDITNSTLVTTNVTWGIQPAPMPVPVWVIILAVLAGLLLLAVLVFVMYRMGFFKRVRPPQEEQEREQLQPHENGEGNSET
Chain of Human integrin αvβ5 (P18084 24-799 limits assumed, chain 2 of 2, further chain): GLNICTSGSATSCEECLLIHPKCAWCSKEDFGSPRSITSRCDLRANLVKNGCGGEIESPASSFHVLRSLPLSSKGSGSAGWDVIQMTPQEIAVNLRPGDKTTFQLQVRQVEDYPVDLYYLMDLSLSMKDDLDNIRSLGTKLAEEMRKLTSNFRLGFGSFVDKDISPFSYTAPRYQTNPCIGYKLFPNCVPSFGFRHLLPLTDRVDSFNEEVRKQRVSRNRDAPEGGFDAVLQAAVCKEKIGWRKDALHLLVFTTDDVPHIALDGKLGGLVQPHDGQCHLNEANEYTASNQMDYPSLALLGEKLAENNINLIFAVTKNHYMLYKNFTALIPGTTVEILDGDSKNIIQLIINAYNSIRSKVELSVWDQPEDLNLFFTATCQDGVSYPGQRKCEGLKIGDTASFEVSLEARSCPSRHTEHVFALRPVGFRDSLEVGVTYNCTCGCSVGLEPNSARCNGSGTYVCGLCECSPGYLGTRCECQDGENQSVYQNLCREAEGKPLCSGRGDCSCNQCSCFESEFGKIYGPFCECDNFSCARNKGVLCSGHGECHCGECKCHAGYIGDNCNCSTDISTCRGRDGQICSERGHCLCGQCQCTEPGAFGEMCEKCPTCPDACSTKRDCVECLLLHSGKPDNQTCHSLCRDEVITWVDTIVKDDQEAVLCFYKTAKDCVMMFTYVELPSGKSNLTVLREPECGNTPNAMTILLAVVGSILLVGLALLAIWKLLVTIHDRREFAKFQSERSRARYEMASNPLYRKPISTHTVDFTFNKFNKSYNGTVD
Chain of Human integrin αvβ3 (P06756 31-1048 limits assumed, form in doubt, chain 1 of 2): as the sequence (P06756 31-1048 limits assumed, chain 1 of 2) above
Chain of Human integrin αvβ3 (P05106 27-788 limits assumed, form in doubt, chain 2 of 2, further chain): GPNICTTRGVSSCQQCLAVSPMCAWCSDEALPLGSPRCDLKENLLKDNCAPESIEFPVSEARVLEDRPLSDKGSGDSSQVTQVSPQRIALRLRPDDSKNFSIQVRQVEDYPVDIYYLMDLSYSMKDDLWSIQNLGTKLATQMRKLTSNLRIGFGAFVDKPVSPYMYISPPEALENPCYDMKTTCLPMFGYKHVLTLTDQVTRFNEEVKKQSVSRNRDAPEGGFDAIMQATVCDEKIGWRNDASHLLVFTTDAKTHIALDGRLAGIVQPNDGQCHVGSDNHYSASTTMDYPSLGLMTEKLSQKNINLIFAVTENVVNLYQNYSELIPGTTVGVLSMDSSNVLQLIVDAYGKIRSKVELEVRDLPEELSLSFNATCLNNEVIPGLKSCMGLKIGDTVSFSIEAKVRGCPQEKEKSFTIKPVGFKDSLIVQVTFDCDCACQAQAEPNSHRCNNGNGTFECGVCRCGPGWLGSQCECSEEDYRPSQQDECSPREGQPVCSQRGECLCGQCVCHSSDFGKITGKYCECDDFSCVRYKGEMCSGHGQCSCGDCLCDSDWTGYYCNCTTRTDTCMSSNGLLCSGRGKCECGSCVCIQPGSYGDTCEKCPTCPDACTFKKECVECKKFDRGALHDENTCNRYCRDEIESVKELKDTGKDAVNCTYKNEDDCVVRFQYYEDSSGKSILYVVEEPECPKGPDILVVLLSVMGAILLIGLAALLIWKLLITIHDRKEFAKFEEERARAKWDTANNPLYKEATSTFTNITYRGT
Chain of Human integrin α5β1 (P08648 42-1049 limits assumed, chain 1 of 2): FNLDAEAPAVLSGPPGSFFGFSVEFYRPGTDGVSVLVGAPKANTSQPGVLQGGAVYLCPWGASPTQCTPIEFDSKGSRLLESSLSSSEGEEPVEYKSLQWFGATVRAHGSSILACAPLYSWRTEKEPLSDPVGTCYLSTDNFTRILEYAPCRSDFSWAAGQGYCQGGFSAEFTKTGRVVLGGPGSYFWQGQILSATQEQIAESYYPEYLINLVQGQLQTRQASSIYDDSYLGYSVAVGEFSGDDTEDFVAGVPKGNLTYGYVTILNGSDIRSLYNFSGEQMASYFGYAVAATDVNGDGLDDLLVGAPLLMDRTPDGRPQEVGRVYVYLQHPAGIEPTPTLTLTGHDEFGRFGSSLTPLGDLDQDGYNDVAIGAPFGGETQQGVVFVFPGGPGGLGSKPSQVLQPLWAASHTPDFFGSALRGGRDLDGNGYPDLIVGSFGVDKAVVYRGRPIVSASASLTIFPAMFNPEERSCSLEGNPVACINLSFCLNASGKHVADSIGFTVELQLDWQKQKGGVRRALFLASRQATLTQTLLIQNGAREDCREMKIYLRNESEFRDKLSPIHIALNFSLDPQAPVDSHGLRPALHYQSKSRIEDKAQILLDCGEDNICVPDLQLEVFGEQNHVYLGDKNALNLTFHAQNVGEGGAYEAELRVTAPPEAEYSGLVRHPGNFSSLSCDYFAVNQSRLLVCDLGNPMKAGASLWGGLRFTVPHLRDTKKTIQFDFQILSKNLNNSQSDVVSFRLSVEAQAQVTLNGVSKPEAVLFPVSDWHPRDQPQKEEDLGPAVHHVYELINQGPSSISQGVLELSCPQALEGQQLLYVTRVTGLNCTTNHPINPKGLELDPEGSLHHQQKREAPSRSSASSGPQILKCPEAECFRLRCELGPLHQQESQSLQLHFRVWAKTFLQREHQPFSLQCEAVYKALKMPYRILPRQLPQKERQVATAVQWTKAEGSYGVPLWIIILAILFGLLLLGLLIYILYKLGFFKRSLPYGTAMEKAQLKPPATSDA
Chain of Human integrin α5β1 (P05556 21-798 limits assumed, chain 2 of 2, further chain): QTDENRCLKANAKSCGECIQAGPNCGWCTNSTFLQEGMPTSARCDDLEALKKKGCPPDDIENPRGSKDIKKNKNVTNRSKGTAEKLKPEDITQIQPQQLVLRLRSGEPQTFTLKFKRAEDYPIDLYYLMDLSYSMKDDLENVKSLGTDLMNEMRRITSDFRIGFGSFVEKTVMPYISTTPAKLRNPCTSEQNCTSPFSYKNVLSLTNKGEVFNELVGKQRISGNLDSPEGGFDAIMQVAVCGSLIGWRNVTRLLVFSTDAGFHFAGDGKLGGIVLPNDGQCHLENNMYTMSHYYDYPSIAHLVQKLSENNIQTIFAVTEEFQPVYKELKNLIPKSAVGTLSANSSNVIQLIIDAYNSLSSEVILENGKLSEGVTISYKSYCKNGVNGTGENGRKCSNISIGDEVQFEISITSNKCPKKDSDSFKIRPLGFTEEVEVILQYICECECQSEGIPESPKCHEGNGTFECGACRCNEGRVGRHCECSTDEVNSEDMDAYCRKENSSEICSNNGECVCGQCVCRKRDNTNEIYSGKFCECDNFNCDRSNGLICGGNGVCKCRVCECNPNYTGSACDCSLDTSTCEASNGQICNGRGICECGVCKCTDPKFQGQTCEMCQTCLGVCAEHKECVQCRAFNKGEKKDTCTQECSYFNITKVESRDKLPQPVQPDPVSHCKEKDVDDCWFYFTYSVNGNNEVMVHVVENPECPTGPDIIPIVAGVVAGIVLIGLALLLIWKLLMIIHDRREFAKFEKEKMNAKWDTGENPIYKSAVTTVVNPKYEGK

- Ki (Human integrin αvβ3): 1 nM
- ratio of integrin Ki/αvβ3 Ki (Human integrin αvβ3): 1
- Ki (Human integrin αvβ5): 3.9 nM
- ratio of integrin Ki/αvβ3 Ki (Human integrin αvβ5): 3.9
- Ki [1]: 23 nM
- ratio of integrin Ki/αvβ3 Ki [1]: 23
- Ki [2]: 382 nM
- ratio of integrin Ki/αvβ3 Ki [2]: 382
- Ki (Human integrin α5β1): 96 nM
- ratio of integrin Ki/αvβ3 Ki (Human integrin α5β1): 96
B1: isoDGR#1-AV(9:1) (other)
peptide: CGDGRG
chain: ARKCSLTGKWTNDLGSNMTIGAVNSRGEFTGTYITAVTATSNEIKESPLHGTQNTINKRTQPTFGFTVNWKFSESTTVFTGQCFIDRNGKEVLKTMWLLRSSVNDIGDDWKATRVGINIFTRLRTQKE
modifications: amino groups carrying SMCC linker; isoaspartate (isoD) at position 3; head-to-tail cyclized; Cys thiol joined to the SMCC linker on avidin
notes: also called isoDGR#1-avidin conjugate

- Ki [2]: 1460 nM
B2: *AV(0:1) (other, UniProt P02701 25-152, looked up)
chain: B1 chain
modifications: amino groups carrying SMCC linker, no peptide
notes: Control lacking the peptide; also called linker-avidin

Each block holds one binder with its values, some of them ahead of it.
